Results taken from the supplement of paper PMC11876631.
± gives the standard deviation of the averaged measurements. Laboratory Escherichia coli strains with one amino-acid change in an essential protein, pooled on minimal glucose agar with carbenicillin or gentamicin at twice the control MIC (plus kanamycin and chloramphenicol for the plasmids), 48 h. Fold change of barcode share against drug-free plates; higher = less susceptible. Active = above 20 in both replicates (the paper's putatively resistant). '<' = one read or none on drug, '>' = one read or none on a drug-free plate. Shares are relative, so most strains fall below 1 when a few take over. Listed are strains with at least 15 reads on both drug-free plates, and hits; most hits rest on fewer reference reads. Replicate rank correlation about 0.5. Edits are read from barcodes.

molecular target: Escherichia coli (laboratory strain); experiment: barcode share on antibiotic plates over drug-free plates; higher = less susceptible; conditions: antibiotic: gentamicin; 2× MIC (MIC 0.45 µg/mL)
Method: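 A pool of E. coli strains, each edited to carry one amino-acid change in an essential protein, was grown for 48 h on minimal glucose agar with or without antibiotic; strain barcodes were sequenced; mean of two replicates.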

Protein	fold change of barcode share
panB M215Q (protein) MKPTTISLLQKYKQEKKRFATITAYDYSFAKLFADEGLNVMLVGDSLGMTVQGHDSTLPVTVADIAYHTAAVRRGAPNCLLLADLPFMAYATPEQAFENAATVMRAGANMVKIEGGEWLVETVQMLTERAVPVCGHLGLTPQSVNIFGGYKVQGRGDEAGDQLLSDALALEAAGAQLLVLECVPVELAKRITEALAIPVIGIGAGNVTDGQILVQHDAFGITGGHIPKFAKNFLAETGDIRAAVRQYMAEVESGVYPGEEHSFH	< 0.0167
panB L178A (protein) MKPTTISLLQKYKQEKKRFATITAYDYSFAKLFADEGLNVMLVGDSLGMTVQGHDSTLPVTVADIAYHTAAVRRGAPNCLLLADLPFMAYATPEQAFENAATVMRAGANMVKIEGGEWLVETVQMLTERAVPVCGHLGLTPQSVNIFGGYKVQGRGDEAGDQLLSDALALEAAGAQLAVLECVPVELAKRITEALAIPVIGIGAGNVTDGQILVMHDAFGITGGHIPKFAKNFLAETGDIRAAVRQYMAEVESGVYPGEEHSFH	0.0107 ± 0.0042
panC M162A (protein) MLIIETLPLLRQQIRRLRMEGKRVALVPTMGNLHDGHMKLVDEAKARADVVVVSIFVNPMQFDRPEDLARYPRTLQEDCEKLNKRKVDLVFAPSVKEIYPNGTETHTYVDVPGLSTMLEGASRPGHFRGVSTIVSKLFNLVQPDIACFGEKDFQQLALIRKAVADMGFDIEIVGVPIMRAKDGLALSSRNGYLTAEQRKIAPGLYKVLSSIADKLQAGERDLDEIITIAGQELNEKGFRADDIQIRDADTLLEVSETSKRAVILVAAWLGDARLIDNKMVELA	< 0.0187
pdxB L104A (protein) MKILVDENMPYARDLFSRLGEVTAVPGRPIPVAQLADADALMVRSVTKVNESLLAGKPIKFVGTATAGTDHVDEAWLKQAGIGFSAAPGCNAIAVVEYVFSSLAMLAERDGFSLYDRTVGIVGVGNVGRRLQARLEALGIKTLLCDPPRADRGDEGDFRSLDELVQRADILTFHTPLFKDGPYKTLHLADEKLIRSLKPGAILINACRGAVVDNTALLTCLNEGQKLSVVLDVWEGEPELNVELLKKVDIGTSHIAGYTLEGKARGTTQVFEAYSKFIGHEQHVALDTLLPAPEFGRITLHGPLDQPTLKRLVHLVYDVRRDDAPLRKVAGIPGEFDKLRKNYLERREWSSLYVICDDASAASLLCKLGFNAVHHPAR	< 0.0124
pdxH V112A (protein) MSDNDELQQIAHLRREYTKGGLRRRDLPADPLTLFERWLSQACEAKLADPTAMVVATVDEHGQPYQRIVLLKHYDEKGMVFYTNLGSRKAHQIENNPRVSLLFPWHTLERQAMVIGKAERLSTLEVMKYFHSRPRDSQIGAWVSKQSSRISARGILESKFLELKQKFQQGEVPLPSFWGGFRVSLEQIEFWQGGEHRLHDRFLYQRENDAWKIDRLAP	< 0.0182
plsB L347Q (protein) MSGWPRIYYKLLNLPLSILVKSKSIPADPAPELGLDTSRPIMYVLPYNSKADLLTLRAQCLAHDLPDPLEPLEIDGTLLPRYVFIHGGPRVFTYYTPKEESIKLFHDYLDLHRSNPNLDVQMVPVSVMFGRAPGREKGEVNPPLRMLNGVQKFFAVLWLGRDSFVRFSPSVSLRRMADEHGTDKTIAQKLARVARMHFARQRLAAVGPRLPARQDLFNKLLASRAIAKAVEDEARSKKISHEKAQQNAIALMEEIAANFSYEMIRLTDRILGFTWNRLYQGINVHNAERVRQLAHDGHELVYVPCHRSHMDYLLLSYVLYHQGLVPPHIAAGINLNFWPAGPIFRRQGAFFIRRTFKGNKLYSTVFREYLGELFSRGYSVEYFVEGGRSRTGRLLDPKTGTLSMTIQAMLRGGTRPITLIPIYIGYEHVMEVGTYAKELRGATKEKESLPQMLRGLSKLRNLGQGYVNFGEPMPLMTYLNQHVPDWRESIDPIEAVRPAWLTPTVNNIAADLMVRINNAGAANAMNLCCTALLASRQRSLTREQLTEQLNCYLDLMRNVPYSTDSTVPSASASELIDHALQMNKFEVEKDTIGDIIILPREQAVLMTYYRNNIAHMLVLPSLMAAIVTQHRHISRDVLMEHVNVLYPMLKAELFLRWDRDELPDVIDALANEMQRQGLITLQDDELHINPAHSRTLQLLAAGARETLQRYAITFWLLSANPSINRGTLEKESRTVAQRLSVLHGINAPEFFDKAVFSSLVLTLRDEGYISDSGDAEPAETMKVYQLLAELITSDVRLTIESATQGEG	< 0.0213
plsC F20A (protein) MLYIFRLIITVIYSILVCVAGSIYCLFSPRNPKHVATFGHMFGRLAPLFGLKVECRKPTDAESYGNAIYIANHQNNYDMVTASNIVQPPTVTVGKKSLLWIPFFGQLYWLTGNLLIDRNNRTKAHGTIAEVVNHFKKRRISIWMFPEGTRSRGRGLLPFKTGAFHAAIAAGVPIIPVCVSTTSNKINLNRLHNGLVIVEMLPPIDVSQYGKDQVRELAAHCRSIMEQKIAELDKEVAEREAAGKV	< 0.0196
